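Following 48 hours of exposure in 96-well plates, responses at five concentrations were used to interpolate endpoints linearly. GI50 marks 50% less growth.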 Active and inactive are the calls of the source. Cut-off read from the data, not from the text of the source: active = GI50 up to about 1.1 µM and inactive = higher. A value given as a limit tells only on which side of the number the result lay.

For this experiment, the system named is NCI-H322M. Description: growth of human tumour cells (NCI), 48 h.
As to `NC(Cc1cc(Br)c(O)c(Br)c1)C(=O)O` (centres undefined), the GI50 was inactive: > 100 µM.
As to `CC(C)CN(CC#N)CC(C)C`, the GI50 is inactive: > 100 µM.
In the case of `Nc1nc2c(C(=O)NCc3cccs3)nnn2c2cccc(Cl)c12`, the GI50 is inactive: 99.5 µM.
Take `CN(C)c1ccc(/C=C/c2cc[n+](C)c3ccccc23)cc1`: the GI50 was inactive: 3.96 µM.
`N#CC[N+]1(Cc2ccccn2)CCCC1`: the GI50 was inactive: > 100 µM.
Turning to `CCC1(CC)C(=O)N(C(=O)c2ccc(Cl)cc2)N(C(=O)c2ccccc2Cl)C1=O`, the GI50 was inactive: > 100 µM.
With `Nc1ccn(C2OC(COP(=O)(O)Oc3ccccc3)C(O)C2O)c(=O)n1` (centres undefined) the figure was inactive: > 100 µM; with `Cc1cn(C2CC(O)C(CO)C2C)c(=O)[nH]c1=O` (centres undefined), inactive: > 100 µM; with `NC1=NC2(COC(c3ccccc3)(c3ccccc3)c3ccccc3)OC(COC(c3ccccc3)(c3ccccc3)c3ccccc3)C(O)C2O1` (centres undefined), inactive: > 100 µM.
In the case of `COC(=O)N1C[C@@]2(C=CC3(CC2)OCCO3)c2ccccc21`, the GI50 was inactive: > 100 µM.
As to `CN[C@@H](C)[C@@H](N)c1ccccc1`, the GI50 is inactive: > 100 µM.
Take `CC12CC(=O)NN=C1c1ccccc1C2` (centres undefined): the GI50 is inactive: > 100 µM.
Consider `Cc1ccc(/N=C2N=C(Cl)/C(=C\c3ccco3)N\2)cc1`, for which the GI50 was inactive: > 100 µM.
With `Clc1cccc(C2SCc3nc4ccccc4n32)c1Cl` (centres undefined) the figure was inactive: 22.1 µM; with `CC(=O)/C=C(/C=N/O)c1ccccc1`, inactive: > 100 µM.
Consider `O=CC1=CCCN(CCc2c[nH]c3ccccc23)C1`, for which the GI50 is inactive: 52.4 µM.
Take `CC1(C)CSCC(C)(C)C(=N/N)/C1=N\N`: the GI50 was inactive: > 100 µM.
In the case of `COc1c2cc([N+](=O)[O-])cc1CNC(=O)CN1CCOCCOCCN(CCOCCOCC1)CC(=O)NC2`, the GI50 is inactive: > 100 µM.
Consider `COc1ccc(N2C(N)=C(C#N)C(C#N)(C#N)C2c2cccc([N+](=O)[O-])c2)cc1` (centres undefined), for which the GI50 is inactive: 18.5 µM.
As to `COC1=CC(=O)C2C(C1=O)[C@@H]1c3ccccc3OC(C)(C)[C@H]21` (some centres undefined), the GI50 is inactive: > 100 µM.
For the compound `CC(=O)O[C@@H](c1nccn1Cc1ccccc1)[C@H]1OC(C)(C)O[C@@H]1[C@H]1COC(C)(C)O1`, the GI50 is inactive: > 100 µM.
For the compound `CN(C)c1ccc(C2=C([O-])c3cc(-[n+]4ccccc4)ccc3C2=O)cc1`, the GI50 is inactive: > 100 µM.
For the compound `O=C(O[C@H](/C=C/c1ccccc1)P1(=O)N(Cc2ccccc2)[C@H]2CCCC[C@@H]2N1Cc1ccccc1)c1ccccc1`, the GI50 was inactive: 6.28 µM.
On to `NC(=O)CCC(NC(=O)Cc1ccccc1)C(=O)O.NC(CCC(=O)NC(=O)Cc1ccccc1)C(=O)O` (centres undefined), for which the GI50 was inactive: > 8130 µM.
The same measure for `N/C(=N\c1ccc(Cl)cc1)NS(=O)(=O)c1ccc(S(=O)(=O)c2ccccc2)s1`: inactive: 20.1 µM.
Turning to `Cc1nc2cc(N)c(F)cc2[nH]1`, the GI50 is inactive: > 100 µM.
Consider `Cc1cn([C@@H]2C[C@@H]2CO)c(=O)[nH]c1=O`, for which the GI50 was inactive: > 100 µM.
`CCCCCCCSCC1C(=O)C23C(O)C1CCC2C12COC3(O)C(O)C1C(C)(C)CCC2O` (centres undefined): the GI50 is inactive: 19.1 µM.
Take `O=C1c2ccccc2NC(=O)C2C1C(c1ccccc1)CC2(O)c1ccccc1` (centres undefined): the GI50 is inactive: > 100 µM.
With `CC(C)=CCC/C(C)=C/CC/C(C)=C/C(O)c1ccccc1` (centres undefined), the GI50 is inactive: 20.4 µM.
With `O=C(Nc1ccc(C(F)(F)F)cc1[N+](=O)[O-])C(=O)Nn1c(S)nc2ccccc2c1=O`, the GI50 is inactive: > 100 µM.
Take `CCN(CC)C(=O)N1CCN(C=S)CC1`: the GI50 was inactive: > 100 µM.
On to `Cc1cc2c(C)n(Cc3ccc(Cl)cc3Cl)nc2c(C#N)c1C`, for which the GI50 was inactive: 80.7 µM.
Turning to `OC[C@H](O)[C@@H](OCc1ccccc1)[C@H](NCc1ccccc1)c1cccs1`, the GI50 is inactive: > 100 µM.
On to `CCOC(=O)C(=O)Nc1c(C)cccc1CC`, for which the GI50 was inactive: > 100 µM.
The same measure for `CCN1C(NCCO)=NS(=O)(=O)c2ccccc21`: inactive: > 100 µM.
In the case of `CC1=CC2=C(C(N)=O)C(=O)OC2(C)C(c2ccccc2)C1` (centres undefined), the GI50 was inactive: > 100 µM.
With `O=C(Nc1ccc(Cl)c(Cl)c1)C1C(=O)N(c2ccc(Cl)c(Cl)c2)C(=O)/C1=N\O` (centres undefined), the GI50 was inactive: > 100 µM.
With `CN1Cc2cc(O)c(O)cc2C(O)C1` (centres undefined), the GI50 was inactive: > 100 µM.
For `O=C1C=C(O)C(=Cc2c(O)cc(O)cc2O)C(O)=C1`, the GI50 is inactive: > 100 µM.
As for `C=CC(C)(C)n1cc(C2=C3OC(=O)C(c4cn(C(C)(C)C=C)c5ccccc45)=C3OC2=O)c2ccccc21`, the GI50 is inactive: > 100 µM.
`CCCCCCCCCCCCC/C=C/[C@@H](O)[C@H](COC1OC(CO)C(OC2OC(CO)C(O)C(OC3(C(=O)O)CC(O)C(NC(C)=O)C(C(O)C(O)CO)O3)C2O)C(O)C1O)N=[N+]=[N-]` (some centres undefined): the GI50 was inactive: 38.5 µM.
As to `COc1ccccc1N1C(=O)CSC1c1cc(OC)c(OC)c(OC)c1` (centres undefined), the GI50 was inactive: > 41.6 µM.
Regarding `CCc1nc2c(c(N(C)C)c1C(=O)OC)CCc1ccccc1-2`, the GI50 was inactive: 47.3 µM.
As to `C/C=C/OC1C(C2COC(C)(C)O2)OC2OC(C)(C)OC21` (centres undefined), the GI50 was inactive: > 100 µM.
For `O=C1C(CN2CCCCC2)CCCC1CN1CCCCC1` (centres undefined), the GI50 was inactive: > 100 µM.
As to `O=C1c2cccnc2S(=O)(=O)N1c1ccc(Br)cc1`, the GI50 is inactive: > 100 µM.
On to `CC(=O)[C@@H]1[C@@H](OC(=O)CCC(C)COC2OC(CO)C(O)C(O)C2O)C[C@H]2[C@@H]3CC=C4C[C@@H](OC5OC(CO)C(OC6OC(C)C(O)C(O)C6O)C(O)C5OC5OC(C)C(O)C(O)C5O)CC[C@]4(C)[C@H]3CC[C@]12C` (some centres undefined), for which the GI50 was inactive: > 100 µM.
Consider `CCOc1ccc(NC2=NC(=O)C(CC(=O)Nc3ccc(Cl)cc3Cl)S2)cc1` (centres undefined), for which the GI50 was inactive: > 100 µM.
The same measure for `NC(CNO)C(=O)O` (centres undefined): inactive: > 100 µM.
Consider `Cc1ccc(S(=O)(=O)CC2CCCn3c2c(C#N)c2ccccc23)cc1` (centres undefined), for which the GI50 was inactive: > 100 µM.
In the case of `CC1(C)C[C@H](O)[C@H](O)[C@]23C(=O)O[C@H](O)[C@H]2C(C=O)=CC[C@@H]13`, the GI50 is inactive: > 100 µM.
With `CSC1=Nc2ccccc2N=C(c2ccccc2)C1` the figure was inactive: > 100 µM.
Regarding `COc1cc(C(=O)C/C(CCC(=O)Nc2ccccc2[N+](=O)[O-])=N\NC(N)=O)ccc1O`, the GI50 was inactive: > 100 µM.
The same measure for `CC1=NN(c2nc(N)nc(CCl)n2)CC1`: inactive: 49.8 µM; for `COc1cc(C2C(Cl)C(=O)N2c2ccc(Br)cc2)cc(I)c1O` (centres undefined): inactive: 69.5 µM; for `CC(C)(C)OC(=O)NC(CSCc1ccc(C(=O)c2ccccc2)cc1)C(=O)N1CCN(CCCCN2c3ccccc3Sc3cc(N=[N+]=[N-])ccc32)CC1` (centres undefined): inactive: > 100 µM.
The same measure for `CSC(=Nc1nnc(-c2ccc([N+](=O)[O-])cc2)s1)SC`: inactive: 50.1 µM; for `O=S(=O)(O)c1c(Cl)cc(O)c2ncccc12`: inactive: > 100 µM; for `CCOC(=O)NC(=O)c1cn(C2OC(COC(=O)CCCCCCCCC(=O)OCC3OC(n4cc(C(=O)NC(=O)OCC)c(=O)[nH]c4=O)C(O)C3O)C(O)C2O)c(=O)[nH]c1=O` (centres undefined): inactive: > 100 µM.
As for `COC1OC(OC)C2C(c3c(C)cc(C)cc3C)=NOC12` (centres undefined), the GI50 was inactive: > 100 µM.
The same measure for `O=C(NCCC1CNc2ccccc21)OCc1ccccc1` (centres undefined): inactive: > 100 µM; for `C=CC/N=C1/N=C(CC(=O)OCC)CS1`: inactive: > 100 µM; for `N#CC(C#N)=CSc1ccccc1`: inactive: 59.4 µM.
Regarding `Cc1cccc(C(C)(C)C)c1NC(=O)C(C#N)C1=C(Cl)C(=O)c2ccccc2C1=O` (centres undefined), the GI50 is inactive: 19.1 µM.
For `COC(=O)/C=C\C(C#N)(C#N)/N=C/c1ccc(C)s1`, the GI50 was inactive: 15.5 µM.
Take `N=C(N)N/N=C/c1cnn(C(=N)N)c1`: the GI50 was inactive: > 100 µM.
With `COC(=O)C1CCC(=S)N1C(C)=O` (centres undefined) the figure was inactive: 7.6 µM; with `NC1(CCCCCCCCCCC(=O)O)CNCCNCCNCCNC1`, inactive: 39.6 µM.
For the compound `C/C(CC(=O)Nc1ccc(NC(=O)/C(C)=N/NS(=O)(=O)c2ccc(C)cc2)cc1)=N\NS(=O)(=O)c1ccc(C)cc1`, the GI50 was inactive: > 100 µM.
In the case of `CC12CC(=O)Nc3ccccc3N1C(c1ccccc1)=NO2` (centres undefined), the GI50 is inactive: > 100 µM.
As for `O=C(Nc1ccccc1-c1nc2ccccc2[nH]c1=O)c1ccccc1`, the GI50 is inactive: 23.5 µM.
With `Cc1cccc2c(NCCCN(C)C)c3c([N+](=O)[O-])ccc(C)c3nc12` the figure was active: 0.256 µM; with `CC(C)(C)[Si](C)(C)OCC#C[C@@]1(O)CCCCC1CC(Sc1ccccc1)Sc1ccccc1` (some centres undefined), inactive: 17.6 µM; with `N#C/C(=C/c1cccc(Oc2ccccc2)c1)c1ccccc1`, inactive: > 100 µM.
For `COc1ccc(/C=C2\C(=O)N(C)C(=O)c3cc(OC)c(OC)cc32)cc1OC`, the GI50 is inactive: 59.3 µM.
Take `CCC1=CCC23C(=O)C=CC(=O)C2(C1)C(=O)c1cccc(OC)c1C3=O` (centres undefined): the GI50 is inactive: 30.3 µM.
On to `CCCCCCCCOP(=O)(O)OP(=O)(O)OCC1OC(n2ccc(N)nc2=O)C(O)C1O` (centres undefined), for which the GI50 was inactive: > 100 µM.
The same measure for `CNC(=O)c1nn[nH]c1O`: inactive: > 100 µM; for `Oc1cccc2ccc(SSc3ccc4cccc(O)c4n3)nc12`: inactive: 56.4 µM.
Take `Cc1cc(S(=O)(=O)/N=C(\NN)NNc2cccc(C(F)(F)F)n2)c(S)cc1Cl`: the GI50 was inactive: 29.1 µM.
`CN(C)C(=O)Oc1c(Br)cc(Br)cc1C(=O)OCc1ccccc1`: the GI50 was inactive: 35.8 µM.
On to `O=C1Nc2c(Cl)cc(Cl)cc2C1=O`, for which the GI50 was inactive: > 100 µM.
The same measure for `c1ccc2c(c1)CCN2CCN1CCc2ccccc21`: inactive: > 10 µM.

The values are drawn from ChEMBL document CHEMBL1201862, “PubChem BioAssay data set” (2004).
